Test results published in PubChem BioAssay AID1794842 (National Center for Advancing Translational Sciences (NCATS), 2023).
The campaign covered roughly 2,800 compounds. Fewer than 10 were called active. Calls come from the whole dose curve; as a rule, active = well fitted curve in the direction sought with a large enough effect; inconclusive = small, poorly fitted or top-dose-only effect, or another doubt; inactive = no such curve, though single readings can be large or run the other way. This is one part of the list.

These molecules were tested against Metallo-beta-lactamase type 2 (Klebsiella pneumoniae) (UniProt C7C422) (assay: qHTS to identify inhibitors of the New Delhi Metallo-beta-lactamase (NDM): Meropenem screen against the machine-based learning selections.). Conditions: Purified NDM-1, meropenem hydrolysis, absorbance 300 nm; at 38.4 µM (top of the series) unless noted.
Method in brief: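 Hydrolysis by 2 nM NDM-1 was followed by absorbance after >30 min compound preincubation in HEPES pH 7.0 buffer with 1 uM Zn2SO4. For nitrocefin (16.7 uM, 15 min, 485 nm) and meropenem (50 uM, 30 min, 300 nm), each substrate ran on separate plates.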
Note: % of control where 0% means no effect.

Sequence of UniProt C7C422 (C7C422 whole entry, looked up): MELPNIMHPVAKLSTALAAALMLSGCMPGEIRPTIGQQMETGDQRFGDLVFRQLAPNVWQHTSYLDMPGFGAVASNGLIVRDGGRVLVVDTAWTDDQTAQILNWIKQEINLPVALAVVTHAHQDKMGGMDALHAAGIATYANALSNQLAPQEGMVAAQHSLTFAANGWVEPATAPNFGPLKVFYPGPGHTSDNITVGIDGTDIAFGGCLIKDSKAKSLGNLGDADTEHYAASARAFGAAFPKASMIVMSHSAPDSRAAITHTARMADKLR

Activity change, negative = inhibition, inactive:
Cc1ccc(NC(=O)N2CCCC(c3nnc(CN(C)C)n3C)C2)cc1C (stereo not drawn) 1.17%
CC(C)(CC(=O)O)CC(=O)N1CCN2C(=O)c3cc(-c4ccc(Cl)cc4)ccc3NC(=O)[C@H]2C1 7.44%
O=C(O)[C@@H]1CN(C(=O)CCc2cccc(Cl)c2)C[C@H]1c1cccc(F)c1 1.05%
COc1ccc(CN2CCNc3cc(Nc4cccnc4)ncc3C2)cc1O 3.47% [at 57.5 µM]
O=C([C@H]1O[C@H](CCN2C[C@@H]3C[C@H](C2)c2cccc(=O)n2C3)CC[C@@H]1O)N1CCN(c2ccccc2)CC1 6.63%
Oc1cccc(-c2cc(-c3cccnc3)c3cncn3c2)c1 27.1% [at 76.7 µM]
O=C(O)c1ccnc(-c2ccnc(NCCc3noc(C4CCC4)n3)n2)c1 14.3%
O=C(CCCc1ccccc1)N[C@@H]1CN(c2ccncn2)C[C@H]1CO 0.377%
CCN(CC)C(=O)[C@@H]1CCC[C@@H](NC2CCC2)CN(C)C(=O)C1 1.17% [at 57.5 µM]
O=C1CCC2(CCN(C/C=C/c3ccccc3)CC2)CN1CCCn1ccnc1 4.26%
CC1(C(=O)Nc2ccc(C(N)=O)cc2)CCCc2cnc(Nc3ccccc3)nc21 (stereo not drawn) 2.65% [at 57.5 µM]
c1cncc(Nc2cc3c(cn2)CN(Cc2ccsc2)CCN3)c1 6.63% [at 57.5 µM]
CCc1ccc(-c2nc(C3CC(=O)N(c4ccc(C)cc4)C3)no2)cc1 (stereo not drawn) 1.01%
CCc1cc(C(=O)N[C@H](c2ccc(OC)nc2)C2CC(O)C2)ccn1 (stereo partly drawn) 1.5%
CN1C(=O)COC[C@@H]1[C@H](O)c1ccc(NC(=O)c2ccc(F)cc2)cc1 6.57% [at 57.5 µM]
O=C(CCCc1ccccc1)NCC(=O)N1CCCCCCNC(=O)CC1c1ccccc1 (stereo not drawn) 1.21%
O[C@@H]1C[C@@H](c2nc(-c3ccc4c(c3)OCO4)no2)N(Cc2cc3ccccc3o2)C1 3.26% [at 57.5 µM]
COc1cccc(NC(=O)COc2cccc(-c3nnc4n3CCCC4)c2)c1 -1%
O=S(=O)(NC[C@H]1O[C@@H](CO)[C@@H](O)[C@H]1N1CCCC1)c1cccs1 40.4% [at 57.5 µM]
CNc1cc(C)nc(N2C[C@H]3CN(C(=O)N(C)C)C[C@@]3(C(=O)O)C2)n1 -0.5%
COCc1noc([C@@H]2CC(F)(F)CN2C(=O)c2occc2C)n1 -3.8%
Cn1ccc2c(C(=O)NCc3cccnc3)nc(Nc3ccccc3)cc21 4.12% [at 57.5 µM]
COC[C@@H]1CN(C(=O)c2cncc(C)c2)C[C@H]1C(N)=O -0.0842%
O=C(NC[C@H]1OC[C@@H](NCc2cnc[nH]2)[C@@H]1O)C1CCCC1 10.9% [at 57.5 µM]
O=C(Cc1ccccc1)Nc1ccc([C@@H](O)[C@H]2COCC(=O)N2CC2CC2)cc1 -0.857% [at 57.5 µM]
O=C(O)c1cc(Br)cc(S(=O)(=O)NCc2ccccn2)c1 54.8%
COc1ccc2nc(C[C@@H]3C[C@@H](C(C)C)[C@H](CNC(=O)Nc4ccc(F)cc4)C=C3C)[nH]c2c1 0.701%
CC(C)CN(Cc1cccnc1)C1CN(S(=O)(=O)Cc2ccccc2F)C1 0.438%
COc1ccc(NC(=O)c2ccc3c(c2)N(C)C2CCCCN2C3=O)cc1Cl (stereo not drawn) 2.08%
COc1ccc2[nH]c(C(=O)N[C@H]3COC[C@H]3Cc3cc(C)no3)c(C)c2c1 10.9%
CC(C)C[C@@H]1N[C@H](C(=O)NC2CC2)Cc2cn(Cc3nccn3C)c3cccc1c23 5.79% [at 57.5 µM]
O=C(c1ccsc1)N1CCCn2cc(-c3ccccc3F)nc21 6.32%
Cc1cc(=O)[nH]c(NCCNC(=O)c2cccc(CCC(C)(C)O)c2)n1 -1.06%
CCOc1cc(=O)n2c(c1C(=O)Nc1ccc(C)cc1)CCCC2 -0.585%
Cc1nc(NCCc2ccn[nH]2)cc(C2CC(O)C2)n1 (stereo not drawn) 0.665%
Cc1ccc(CN2CCC[C@H]2c2nc(-c3ccc(OC4CCCCC4)nc3)no2)cc1 0.899% [at 57.5 µM]
Cn1cnc2cc(-c3ccc(CO)cc3)cc(C(=O)NCc3cccnc3)c21 15% [at 57.5 µM]
COc1ccc(-c2nnc([C@H]3CCN(c4ncccn4)C3)o2)cc1 1.6% [at 57.5 µM]
COc1ccc(CN2CCNc3cnc(Nc4cccnc4)cc3C2)cc1O 1.27% [at 57.5 µM]
Cc1cc(C)n(Cc2c(C(=O)NCC34CCC=C3N(C)C(=O)CC4)noc2C)n1 (stereo not drawn) -0.0133%
COc1ccc(C(=O)N2C[C@@H]3OCC(=O)N(CC4CC4)[C@@H]3C2)cc1 0.531% [at 57.5 µM]
CCN(CC)CC[C@H]1CN(C(=O)NC2CCCCC2)CC[C@H]1CC(=O)O -0.852% [at 57.5 µM]
Cc1cc(C)nc(N2CCN(C(=O)C3CC(=O)N(CC(C)C)C3)CC2)n1 (stereo not drawn) 4.38%
O=C(Nc1cccc(-c2ccc(F)cc2)c1)C1CCCN(C(=O)c2cccnc2)C1 (stereo not drawn) 1.68%
Cc1noc(C)c1S(=O)(=O)N1C[C@@H](C(N)=O)[C@H](C2CCN(C)CC2)C1 0.148%
NC(=O)Cc1c[nH]c2ncc(-c3cccc(OC(F)(F)F)c3)cc12 4.52% [at 57.5 µM]
CC(C)C[C@@H](NC(=O)C1=C[C@@H](NC(=O)c2cnccn2)[C@@H](O)[C@H](O)C1)C(N)=O 11% [at 57.5 µM]
O=C1N(C2CCOCC2)C[C@H]2CN(Cc3ccccc3F)CCN12 0.445% [at 57.5 µM]
Cc1ccc2c(c1)SCC(=O)N2CC(=O)N(C)Cc1ccoc1 0.897%
NC(=O)c1csc(S(=O)(=O)N2CCC(CO)(CN3CCCC3)CC2)c1 -2.29%
COc1ccc2c(c1)CN(C(=O)c1cccc(C#N)c1)CC[C@H]1COC(=O)N21 1.45% [at 57.5 µM]
CC(C)C[C@@H](NC(=O)C1=C[C@@H](NC(=O)Cc2cccs2)[C@@H](O)[C@H](O)C1)C(N)=O 2.09% [at 57.5 µM]
COc1ccc(CN[C@H]2C[C@H]3C(=O)NC[C@@H](CCC(=O)NCc4ccc(F)cc4)N3C2)cc1 0.678%
CCN1CCCC2(CCN(C(=O)NCCc3ccccc3F)C2)C1=O (stereo not drawn) -0.232%
NC(=O)[C@@H]1CCCN1C(=O)c1ccc2oc(-c3cccc(F)c3)nc2c1 15.5%
Cc1ccccc1[C@H]1C[C@@H](O)[C@@H](O)[C@@H]1NC(=O)c1c(-c2ccccc2)noc1C 0.36% [at 57.5 µM]
COCCN(C)C[C@@H]1CN(C(=O)c2cc3ccccc3n(C)c2=O)C[C@@H]1CO 5.34%
Cn1cc(C(NC(=O)c2cnc(N)nc2-c2ccccc2)C2CC(O)C2)cn1 (stereo not drawn) -0.327%
Cc1ccccc1C(CC(=O)NCc1cccnc1)c1ccccc1 (stereo not drawn) -0.11%
COc1ccc2[nH]cc(CCNC(=O)C3(Cc4cccnc4)CCCCC(=O)N3)c2c1 (stereo not drawn) -1.27%
CN(C)c1cccc(C(=O)N2CCCC(n3cc(-c4nc(C5CC5)no4)nn3)C2)c1 (stereo not drawn) 1.59%
Cc1cc(=O)n(CC(=O)Nc2cccc(C(F)(F)F)c2)c(N2CCN(c3ccccc3)CC2)n1 0.0824%
CNC(=O)C1(N2CCC[C@H]2C(=O)N2CC[C@@H](O)C2)CCCCC1 39.6% [at 57.5 µM]
CC(=O)Nc1cccc(-c2csc(CN3CCCC(C)(NC(C)=O)C3)c2)c1 (stereo not drawn) 0.136% [at 57.5 µM]
Cc1cc(=O)n(CC(=O)Nc2ccccc2C)c(-c2ccc(F)cc2)n1 2.37%
Cc1nn(Cc2ccccc2)c(C)c1[C@@H]1C=C[C@@H](NC(=O)CCCC(=O)O)C1 0.689% [at 57.5 µM]
CC(=O)N1CCc2nc(-c3ccc(Cl)cc3)nc(-c3ccccc3)c2C1 0.131%
COCCN1C(=O)[C@H]2CN(Cc3cccc(OC)c3)C[C@H]2C1=O -1.3%
CCC[C@@H]1CN(Cc2[nH]cc(C)c(=O)c2C)C[C@H]1C(=O)O 7.36%
Cc1ccc(S(=O)(=O)N2CCn3c(n[nH]c3=O)C2)c(C)c1 0.919%
Cn1nc(C(=O)NCc2nnc3ccc(-c4ccccc4)nn23)c2ccccc21 -0.309%
Cc1cc(OC(C)C(=O)N2CCc3c(nc[nH]c3=O)C2)cc(C)c1Cl (stereo not drawn) -0.336%
O=C(O)[C@]12CCCN[C@@H]1CCN(Cc1ccc(-c3ccccn3)cc1)C2 10.1%
CCN(CC)Cc1cnc2c(C(=O)N3CCC(N4CCCC4)CC3)cnn2c1 2%
CCCC1C=CCN1C(=O)c1coc(CN2CCN(c3ccccc3F)CC2)n1 (stereo not drawn) 0.646%
Cc1c(C(C)NC(=O)c2ccc(C#N)nc2)cnn1-c1ccc(F)cc1F (stereo not drawn) -0.922%
C[C@@H](NC(=O)[C@@H]1C[C@@H](NS(=O)(=O)c2cn(C)cn2)CCN1C(=O)c1ccco1)C(N)=O -0.135%
O=C1Nc2ccc(-c3ccc4c(c3)OCO4)cc2C(=O)N2CCN(C(=O)c3cccs3)C[C@H]12 6.52%
